# Assay results: the BET-seq Pho4 binding data (Le et al. 2018)
# This is one part of the list. The energies were worked out here from pooled read counts, against the library average; single values are noisy.
# Molecular target: T1, Pho4 (S. cerevisiae) (UniProt P07270)
# T1 sequence: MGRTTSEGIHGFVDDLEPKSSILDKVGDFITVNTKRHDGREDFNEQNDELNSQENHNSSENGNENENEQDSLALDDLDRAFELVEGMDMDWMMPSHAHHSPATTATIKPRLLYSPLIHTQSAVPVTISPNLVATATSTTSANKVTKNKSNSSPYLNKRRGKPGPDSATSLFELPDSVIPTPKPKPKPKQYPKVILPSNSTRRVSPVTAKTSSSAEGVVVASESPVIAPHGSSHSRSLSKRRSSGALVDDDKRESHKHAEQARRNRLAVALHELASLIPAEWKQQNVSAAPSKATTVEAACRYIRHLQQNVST
# Test: relative binding free energy (BET-seq); higher = weaker binding
# Details: reference: library average
row,Sequence,relative binding free energy [kcal/mol]
1,CTTTTCACGTGGGGTT,-0.04
2,GGAAGCACGTGAATGT,0.07
3,GGTTTCACGTGGGGTG,0.26
4,ATTATCACGTGTGGTT,0.25
5,TCGGGCACGTGTGTAT,-0.04
6,AAAGTCACGTGTCGGG,0.2
7,GGTTGCACGTGACAAG,0.12
8,AGGAACACGTGGGTGT,-0.17
9,GACGGCACGTGTAGTT,0.01
10,AATGTCACGTGTATGT,0.01
11,GGGGTCACGTGCAAGG,0.28
12,TCGGGCACGTGGCTGT,-0.15
13,GGCGGCACGTGAGTAA,0.17
14,TGTGGCACGTGGCTCT,-0.24
15,CACTTCACGTGTTGTT,0.24
16,TAGATCACGTGTGGGT,0.31
17,ATGTGCACGTGGGCTT,-0.19
18,TAAGGCACGTGAATTT,0.19
19,GGCGCCACGTGTTGTT,-0.01
20,ACGGTCACGTGTCGTT,0.16
21,TTTAACACGTGATCTT,0.17
22,TGGAACACGTGCGAGT,0.08
23,TGAGGCACGTGCGATG,-0.06
24,GTATTCACGTGACGGG,0.37
25,CGAGGCACGTGGCAGG,-0.19
26,TATGTCACGTGTTTGC,0.07

row,Sequence,relative binding free energy [kcal/mol]
1,TCTCGCACGTGGGTTG,-0.11
2,TGTGGCACGTGCTGAA,-0.09
3,CAGGGCACGTGTGATG,-0.07
4,GTGGGCACGTGTAAGT,0.02
5,CTTGTCACGTGGCGTT,0.06
6,TTGTGCACGTGGGACG,-0.07
7,GGATGCACGTGTGTTT,0.1
8,TTGCACACGTGTAAGT,0.13
9,ATGTTCACGTGCTGGT,0.19
10,AATTTCACGTGTGAGG,0.35
11,GAATACACGTGTATGG,0.09
12,CCTAGCACGTGTGTTT,0.1
13,CGGGTCACGTGAGTCT,0.39
14,AATTCCACGTGGTGTA,-0.01
15,CATCGCACGTGTTGTG,-0.11
16,GATTGCACGTGGCGCG,0
17,TAGGTCACGTGACGTT,0.15
18,ATTTGCACGTGGTAGG,-0.09
19,ACATTCACGTGTTTGT,0.12
20,GATGTCACGTGATGTA,0.21
21,GGGAACACGTGACGTG,0.18
22,GTAGGCACGTGAGCGT,0.07
23,TCTAGCACGTGGGGTC,-0.22
24,GTTTCCACGTGTGATT,0.1
25,TGGCGCACGTGTGTAG,-0.04
26,ATGGGCACGTGTCTTA,-0.17

row,Sequence,relative binding free energy [kcal/mol]
1,GTACTCACGTGAGGTG,0.25
2,CATCGCACGTGGGTGT,-0.24
3,TAAGACACGTGTGGCA,0.15
4,GTGGACACGTGTTACG,0.1
5,TTTGACACGTGTGGTA,0.12
6,AGTATCACGTGTATGC,0.09
7,ATCGTCACGTGGATAT,0.21
8,TTCGACACGTGTTGAT,0.03
9,TCATGCACGTGGGGAA,-0.06
10,GGCCTCACGTGAGGGG,0.24
11,TGGAGCACGTGTAAGG,0.09
12,CTAATCACGTGGTGGT,0.23
13,CTGGTCACGTGTAAGA,0.18
14,TATGGCACGTGGCGGT,-0.08
15,TGGGCCACGTGTATTT,0.15
16,TTTATCACGTGCTAAT,0.11
17,GAGGCCACGTGATGTG,0.12
18,GAGGACACGTGAGATG,0.31
19,TGCTGCACGTGGATTG,0.04
20,CATAGCACGTGTTAGT,-0.07
21,TTGATCACGTGTCGGG,0.23
22,CATGTCACGTGAGGTT,0.17
23,TTATACACGTGGGATT,-0.02
24,AAATTCACGTGGGTCA,0.12
25,TGCGGCACGTGAGGAT,0.08
26,GAAAGCACGTGGAGTG,-0.15

row,Sequence,relative binding free energy [kcal/mol]
1,TTAGTCACGTGATTTT,0.07
2,ATGCACACGTGATGGA,0.21
3,TAAGACACGTGGTAGG,-0.14
4,TGAGACACGTGTTTCG,0.04
5,TTTCGCACGTGTGCAG,0.02
6,ATTTCCACGTGGGTTA,-0.1
7,TGGGACACGTGGTGAT,-0.04
8,TTTCGCACGTGGAGAG,0.07
9,GAGGGCACGTGTATGC,-0.12
10,TTCTACACGTGTTTGT,-0.03
11,ATTGACACGTGTTGAG,-0.08
12,TTGTACACGTGACTGT,0.04
13,CGTGGCACGTGTAGGG,-0.18
14,TGTGACACGTGTGCGA,0.12
15,TAAGGCACGTGGAATA,-0.01
16,TATTCCACGTGTTATT,-0.04
17,CATTTCACGTGGATGT,0.36
18,TGTTTCACGTGTTTGA,0.26
19,TATAGCACGTGTCAGA,0.14
20,TTTAGCACGTGTGGTA,0.03
21,AATCACACGTGGGGTG,-0.01
22,AGGTTCACGTGGGACT,0.24
23,TGGATCACGTGGGCTC,0.12
24,AGATGCACGTGATGTA,0.07
25,GGGTACACGTGTTCGG,0.06
26,TATAACACGTGGTGGG,-0.09

row,Sequence,relative binding free energy [kcal/mol]
1,TATGTCACGTGACGGA,0.08
2,TTTGGCACGTGTTTGC,-0.1
3,AATACCACGTGGGGGG,-0.19
4,GCTGGCACGTGTTCGG,0.01
5,AGTTGCACGTGTTTGC,-0.1
6,TAAATCACGTGGAGGC,0.09
7,GTGGACACGTGTGTAG,0.04
8,TGAATCACGTGGAGAT,0.15
9,CGAGGCACGTGTGTGC,-0.1
10,CTGCACACGTGTAGGG,0.18
11,CATGGCACGTGTGTTA,-0.07
12,AAATGCACGTGGTTCT,0.05
13,TATGGCACGTGCGGGA,-0.22
14,CTGGACACGTGGAGGT,0.01
15,GCTTGCACGTGAAGTT,0.33
16,GTCTACACGTGTTTTA,0.13
17,TTAACCACGTGTTGGT,-0.05
18,TGTTGCACGTGTTAGC,0.08
19,TTTATCACGTGAACGT,0.28
20,GGAATCACGTGGTTAG,0.09
21,GGTTTCACGTGTTGGT,0.4
22,TATCGCACGTGTTGGA,-0.05
23,ATTTGCACGTGCAGAG,0
24,TTCGGCACGTGTTACG,-0.07
25,ATATCCACGTGATGGG,0.21
26,ATGGGCACGTGTGCCG,-0.21

row,Sequence,relative binding free energy [kcal/mol]
1,GCGTGCACGTGGGTAG,-0.15
2,AAGATCACGTGTAGGT,0.04
3,GTAGCCACGTGTAGGT,-0.07
4,CAGGGCACGTGGGCGG,-0.3
5,TAGGTCACGTGGCGTG,-0.02
6,AGAGACACGTGGGAAG,-0.09
7,TTTGGCACGTGGGCCA,-0.24
8,TGATTCACGTGCTCGG,0.24
9,GCTTACACGTGGGGAA,0.16
10,TGTAGCACGTGAGATT,0.22
11,GCTTGCACGTGGTTTT,0.04
12,TTTGTCACGTGGTCAT,-0.01
13,TAGGTCACGTGTTCGA,0.03
14,TAGTGCACGTGGGGTA,-0.17
15,TATTACACGTGTGTTT,-0.01
16,ATATACACGTGTTTTT,-0.07
17,GGCGGCACGTGGTTGG,-0.01
18,GGAAACACGTGTTTTT,0.07
19,TGGGGCACGTGGGTCC,-0.21
20,CTTAGCACGTGTGTAG,-0.19
21,TGTATCACGTGTAGAG,0.16
22,ATATACACGTGGTAGT,-0.13
23,AGGGACACGTGTGACT,0.29
24,CATTTCACGTGAAGGT,0.24
25,TGGGGCACGTGCACGT,-0.19
26,GGTTCCACGTGATGGT,0.1

row,Sequence,relative binding free energy [kcal/mol]
1,ACGTGCACGTGGTTAA,-0.07
2,TGTACCACGTGGTTTG,-0.06
3,TTGGTCACGTGAATCG,0.28
4,GTAGGCACGTGGTCAG,-0.16
5,TTGCGCACGTGAGTGG,0.05
6,TGAAGCACGTGTTGAA,-0.04
7,GTCTGCACGTGGGTAG,-0.07
8,TTAAACACGTGATGTG,0.09
9,GAGTTCACGTGGATAG,0.27
10,AAGAGCACGTGGGGCA,-0.16
11,TTCGGCACGTGGCAGT,-0.08
12,TGGAACACGTGGTACG,0.01
13,GAAATCACGTGTCTGG,0.27
14,TGGGGCACGTGAAAGA,0.08
15,AGAGGCACGTGGAAAG,0.03
16,AGGCGCACGTGTTGGT,-0.05
17,TGAACCACGTGGGGTT,-0.11
18,GAGAGCACGTGGTGGA,0.05
19,GTTGACACGTGTGAGA,0.1
20,AGGGTCACGTGAGTCT,0.33
21,TACTTCACGTGTGATT,0.37
22,GGGTTCACGTGAGGGT,0.47
23,CGCGTCACGTGTTAGT,0.14
24,TATATCACGTGTGCGT,0.17
25,GTGTCCACGTGTATTT,0.09
26,AGTTACACGTGTCTTT,0.21

row,Sequence,relative binding free energy [kcal/mol]
1,ATTGACACGTGTCGTG,-0.08
2,GGCGACACGTGCGGTT,0.11
3,GGAGGCACGTGCGATG,-0.13
4,TAGATCACGTGTAGTA,0.17
5,AAGCTCACGTGTTTGT,0.34
6,TTGTCCACGTGAGTTG,0.31
7,GGTTTCACGTGCTAGG,0.27
8,GTTTACACGTGTGTCC,0.27
9,AATTTCACGTGGTAAA,0.25
10,CGTGACACGTGTTTAG,-0.01
11,ATGGACACGTGGTGTG,-0.09
12,TATTTCACGTGGGATT,0.19
13,AGGACCACGTGTGGAG,-0.05
14,TACGACACGTGGGAGG,-0.12
15,TAGTACACGTGGAAGG,0.13
16,CGATTCACGTGGGCTT,0.2
17,GGCGGCACGTGGGGAA,-0.08
18,GACAGCACGTGTGTAG,0.12
19,GGTAACACGTGCGTAG,0.09
20,TGTATCACGTGACATG,0.05
21,GGGTTCACGTGGGCGA,0.29
22,TTTGCCACGTGTGTAG,-0.08
23,GTGTGCACGTGATTTC,0.03
24,GAGTTCACGTGTTCTA,0.33
25,CAAGGCACGTGTGGTT,-0.06
26,TGGCACACGTGAGAGT,0.32

row,Sequence,relative binding free energy [kcal/mol]
1,TGAAGCACGTGGCGTT,-0.25
2,TTCTTCACGTGCTTGT,0.11
3,AGTGACACGTGGGACG,-0.07
4,TATCGCACGTGTTAGA,0.01
5,ATGCTCACGTGATGGT,0.24
6,TTTGACACGTGGGACG,-0.08
7,CGAGGCACGTGTGGTT,-0.01
8,ATTTACACGTGAGGAT,0.19
9,TAACGCACGTGTGGTA,-0.18
10,AGGTACACGTGTTGTG,-0.02
11,TCTCTCACGTGTTTGG,0.24
12,CAGTGCACGTGAGTTG,0.3
13,TATGCCACGTGGGTAG,-0.42
14,TGTGACACGTGGGCCG,-0.16
15,TGAGACACGTGCATGG,0.05
16,TAATCCACGTGTGGTT,0.13
17,CGATGCACGTGGAGGG,0.07
18,TAAGACACGTGGAGGG,0.07
19,AGAGACACGTGTATGT,0.01
20,TGGCTCACGTGTAGGA,0.03
21,AGATTCACGTGTGGCT,0.5
22,AATGACACGTGATAGT,0.06
